The list shows a part of the results. Sequences were assembled here from the parent chain. Inactive controls read about 0.05.
B1: TEV protease; numbered along this chain (parent)
chain: MGESLFKGPRDYNPISSSICHLTNESDGHTTSLYGIGFGPFIITNKHLFRRNNGTLVVQSLHGVFKVKDTTTLQQHLVDGRDMIIIRMPKDFPPFPQKLKFREPQREERICLVTTNFQTKSMSSMVSDTSCTFPSGDGIFWKHWIQTKDGQCGSPLVSTRDGFIVGIHSASNFTNTNNYFTSVPKNFMELLTNQEAQQWVSGWRLNADSVLWGGHKVFMVKPEEPFQPVKEATQL

Variants of: B1
Test: raw area under fraction-flipped curve 0-4 h after induction (AUC4h, not background-subtracted), DNA-recorder readout of cleavage of the substrate (dimensionless); higher = more cleavage of the substrate by the protease variant
Details: temperature: 34 °C; time window: 0-4 h after rhamnose induction
Description: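 In vivo DNA recorder in E. coli TOP10(DE3) ΔrhaA at 34 °C. Each TEVp single-site mutant (parent TEVp 0) is paired with a single-site variant of the 7-mer TEVs (canonical ENLYFQ|S). The substrate sits between flexible linkers in a Bxb1-sfGFP-TEVs-SsrA fusion, so cleavage stabilises Bxb1 and speeds flipping of a recombination array, read by NGS. The value is the raw area under the fraction-flipped curve over 0-4 h after rhamnose induction (AUC4h), with ≥20 reads per time point. It is not background-subtracted; inactive controls average about 0.047.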
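Also: Bxb1 expression induced with 0.2% (w/v) L-rhamnose at OD600 near 0.5, cultures sampled hourly, flipped fraction per protease–substrate barcode pair counted by paired-end Illumina sequencing.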

Variant | area with substrate ENLYFAS | area with substrate ENLYFCS | area with substrate ENLYFDS | area with substrate ENLYFES | area with substrate ENLYFFS | area with substrate ENLYFIS | area with substrate ENLYFKS | area with substrate ENLYFLS | area with substrate ENLYFMS | area with substrate ENLYFPS | area with substrate ENLYFTS | area with substrate ENLYFVS | area with substrate ENLYFWS | area with substrate ENLYFYS | area with substrate ENLYFGS | area with substrate ENLYFHS | area with substrate ENLYFSS | area with substrate ENLYFNS | area with substrate ENLYFRS
S124M | 0.0853 | 0.0591 | 0.0679 | 0.0622 | 0.0761 | 0.0642 | 0.0681 | 0.0344 | 0.0375 | 0.0682 | 0.0878 | 0.0493 | 0.0632 | 0.0544 |  |  |  |  | 
S124D | 0.0517 | 0.0633 |  | 0.0674 | 0.0696 | 0.061 | 0.0633 | 0.0616 | 0.0726 | 0.0543 |  |  | 0.0651 | 0.0553 | 0.0801 | 0.0606 | 0.0601 |  | 
T115W | 0.0558 |  | 0.0594 |  | 0.0694 | 0.0671 |  | 0.0518 | 0.0554 | 0.0756 | 0.0431 | 0.0532 |  |  |  |  |  | 0.0805 | 
T114P | 0.0558 |  | 0.0543 |  | 0.0669 | 0.0468 |  |  | 0.0571 | 0.0587 | 0.0555 |  | 0.0539 |  |  |  | 0.0505 |  | 
T114Q | 0.0594 | 0.0557 | 0.0447 | 0.0725 | 0.0706 | 0.0596 | 0.05 | 0.0614 | 0.0702 |  | 0.0513 |  | 0.0552 |  | 0.0589 |  | 0.055 | 0.0737 | 0.0684
F117G | 0.0456 |  | 0.0795 | 0.0538 |  | 0.0572 | 0.056 |  | 0.0643 | 0.0889 | 0.0638 |  | 0.0622 |  |  |  |  | 0.0765 | 0.0532
K148P | 0.0657 |  |  | 0.059 |  | 0.0577 | 0.0615 | 0.0479 | 0.0587 |  |  |  | 0.0521 |  | 0.0704 |  |  |  | 0.0718
I110M | 0.0772 | 0.0683 | 0.0556 | 0.0582 | 0.0768 | 0.072 | 0.0583 |  | 0.0603 | 0.0632 | 0.0502 |  | 0.0529 | 0.103 |  |  |  | 0.0474 | 
I110Q | 0.0595 |  | 0.0428 | 0.0586 | 0.067 | 0.0618 | 0.0557 | 0.0579 | 0.0632 | 0.0506 | 0.0426 |  | 0.0455 | 0.0517 | 0.0533 |  |  | 0.0444 | 
S135Y | 0.0716 | 0.0567 |  | 0.0578 | 0.0762 | 0.0515 | 0.0576 | 0.0471 | 0.0585 | 0.0642 | 0.063 | 0.0607 |  |  | 0.0432 | 0.0528 | 0.0619 | 0.0531 | 0.0685
R160H | 0.0498 |  | 0.063 |  | 0.072 | 0.0497 | 0.0814 |  | 0.065 | 0.0615 |  |  | 0.0498 |  |  | 0.0574 |  |  | 
C111N | 0.0638 | 0.0503 | 0.0503 |  |  | 0.054 |  |  | 0.0652 | 0.0496 |  | 0.0351 | 0.0581 | 0.0576 |  | 0.0607 | 0.0653 |  | 0.0506
C111I | 0.0628 | 0.0575 | 0.0493 | 0.0568 | 0.0609 | 0.0545 | 0.0454 |  | 0.067 | 0.0658 | 0.0568 | 0.0701 | 0.0697 |  | 0.0601 | 0.0622 |  | 0.0524 | 0.0701
K142H | 0.0542 | 0.0549 |  | 0.0694 | 0.0675 | 0.0588 | 0.0601 |  | 0.0701 | 0.0599 | 0.0621 | 0.0748 | 0.0489 | 0.0612 | 0.0556 | 0.0677 | 0.0596 | 0.0675 | 0.0472
